Results reported in PubChem BioAssay (NCI).
Several values for one entry are separate records, joined by “and”; a condition that tells them apart may be missing. Equal entries are not always repeated.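 Cells were grown in 96-well plates and exposed to each compound for 48 hours at five concentrations; endpoints were interpolated linearly between bracketing concentrations, or set to the highest concentration if not reached. GI50 marks 50% less growth. TGI: concentration producing complete growth inhibition.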

Test system: NCI-H322M lung
Experiment: NCI anticancer screen, dose series, 48 h

Structure (SMILES)	GI50	TGI
COC(=O)c1cc(-c2ccc(S(C)(=O)=O)cc2)[nH]c1N/N=C/c1c(Cl)cccc1Cl	1170 nM	> 90.8 µM
N#Cc1ccc(C2SCc3nc4ccccc4n32)cc1 (stereo unspecified)	–	> 100 µM
O=S(=O)(/N=C(\NO)Nc1ccc(Cl)cc1)c1cc2ccccc2s1	–	30.7 µM
NS(=O)(=O)c1ccc(N=Nc2c[nH]c(=O)c(O)c2)cc1	–	> 100 µM
CCOC(=O)NN(C(=O)OCC)C(C(=O)c1ccccc1)N(NC(=O)OCC)C(=O)OCC	–	> 100 µM
O=C(CCc1ccccc1)CC1OC(=O)C(Cl)=C1Cl (stereo unspecified)	–	35.9 µM
COc1ccc2c(c1)/C(=N/OC(C)=O)c1c-2c(OC)nc2ccccc12	68800 nM	> 100 µM
COc1ccc(N2C(=O)/C(=C/c3ccc(N(CCC#N)CCC#N)cc3)N=C2c2ccccc2)cc1	–	> 100 µM
Cc1[nH]c2nccn2c(=O)c1CCO	–	> 10 µM
CSc1ccc(C(=O)/C=C/c2ccc(Cl)cc2Cl)cc1	> 100000 nM	> 100 µM
CCOC(=O)c1cc(C)nc2c1c(=O)n(-c1ccccc1)c(=O)n2CCCCN1CCN(c2ncccn2)CC1	–	> 100 µM
CCOC(=O)c1nc2cc(Cl)ccc2[nH]c1=O	–	> 100 µM
COc1cc(O)c(C(=O)/C=C/c2ccc(OC)c(OCc3ccccc3)c2)c(OC)c1	–	> 100 µM
CC(=O)Nc1ccc(/C=c2\sc3nnc(-c4cccnc4)n3c2=O)cc1	–	> 100 µM
O=C1Nc2ccc(Br)cc2/C1=N/N1C(=O)C(=O)N(C2CCCCC2)C1=S	–	35.1 µM
CN1CCN(c2ccc(NC3=CC(=O)c4ncncc4C3=O)cc2)CC1	1480 nM	2.81 µM
Cc1cc(O)c2c(c1)C(C1c3cccc(O)c3C(=O)c3c(O)cc(C)cc31)c1cccc(O)c1C2=O (stereo unspecified)	–	20.2 µM
O=C1C(=C([O-])c2ccccc2)C(=O)c2ccccc21.O=C1C(=C([O-])c2ccccc2)C(=O)c2ccccc21.[Ni+2]	58000 nM	> 100 µM
CCC(c1ccccc1)c1cc(C(C)(C)C)cc(C(C)(C)C)c1O (stereo unspecified)	–	31.7 µM
Cc1ccc(S(=O)(=O)N(CCNC(=O)c2cccc(O)c2O)c2cc3c4c(c2)Oc2cccc5c2C4(C)c2c(cccc2O3)O5)cc1	–	> 100 µM
CCOCCOCCOCCOCCOCCOCCOCCOCCOCCO (tested in a mixture with another compound)	4100 nM	18.7 µM
N#Cc1c(N)nc(N2CCOCC2)c(C#N)c1-c1c(Cl)cccc1Cl	33200 nM	> 100 µM
CCN(CC)C(=S)SS(C)(=O)=O	–	> 100 µM

Structure (SMILES)	GI50	TGI
Fc1ccc(Nc2nc(Nc3ccc(-c4nc5ccccc5[nH]4)cc3)c3cn[nH]c3n2)cc1	2090 nM	6.01 µM
COc1ccc([I+]c2ccc(OC)cc2)cc1	48200 nM	> 100 µM
C[C@]12CCC(=O)C[C@@H]1CC[C@@H]1[C@@H]2CC[C@]2(C)[C@@H](OC(=O)N(CCCl)N=O)CC[C@@H]12	8320 nM	30.9 µM
COc1ccc2nc3ccccc3c(NCCCCN(CCCl)CCCl)c2c1	–	4.5 µM
CN(CCCCCl)P(=O)(OCc1ccc([N+](=O)[O-])o1)OCC1OC(n2cc([N+](=O)[O-])c(=O)[nH]c2=O)CC1O (stereo unspecified)	19000 nM	> 100 µM
COc1ccc2c3/c(=C\c4ccc(N(C)C)cc4)c4ccccc4n3[n+](C)c2c1	219 nM	0.625 µM
CC(=O)OCC1OC(n2c(=S)n(-c3ccccc3)c(=O)c3cc(Br)ccc32)C(OC(C)=O)C1OC(C)=O (stereo unspecified)	–	> 100 µM
COC(=O)CC1=C(C)/C(=C/c2[nH]c(-c3ccc[nH]3)cc2OC)N=C1C	757 nM	13 µM
Cc1ccc(S(=O)(=O)NNS(C)(=O)=O)cc1	–	> 100 µM
Cc1nn2c(c1C#N)NNc1c-2sc(=N)nnc1=O	–	> 100 µM
C=CCSC(C)=O	–	> 100 µM
Cc1cc(C)n(-c2nc(C)c(CCO)c(=O)[nH]2)n1	–	> 100 µM
CCc1c(C)c2cc(-n3c(-c4ccc(OC)cc4)csc3=N)c(O)c(C)c2oc1=O	2190 nM	12.3 µM
C(=C/c1nnnn1-c1ccccc1)/Nc1ccccc1	–	> 100 µM
COc1ccccc1C(=O)OCC1CCCN2CCCCC12 (stereo unspecified)	–	> 100 µM
C(=N\Nc1ccc2ccccc2n1)/c1ccccn1	271 nM	4.48 µM
CSc1ccc2c(c1)c(CCN)c(C)n2Cc1ccccc1Cl	–	3.01 µM
Cc1c(-c2ccccn2)ccc2ccccc12	–	> 100 µM
Cc1ccc(Nc2nc(-c3ccc(-c4ccc([N+](=O)[O-])cc4)o3)cs2)cc1	–	> 100 µM
CC1OC(O[C@@H]2C=C3CC[C@@H]4[C@H](CC[C@]5(C)[C@@H](c6ccc(=O)oc6)CC[C@]45O)[C@@]3(C)CC2)C(O)C(OC2OC(CO)C(O)C(O)C2O)C1O (stereo partly specified)	–	0.00411 µM
COC(=O)c1ccccc1C1CN=NC12Cc1ccc3c(c1C2=O)CCC3 (stereo unspecified)	–	> 100 µM
Fc1ccc(C(OCCN2CCC3CCC(C2)N3C/C=C/c2cccs2)c2ccc(F)cc2)cc1 (stereo unspecified)	–	25.1 µM
CCN1C(=O)N(CC)C2C1N=C(SC)N2/N=C/C=C/c1ccccc1OC (stereo unspecified)	815 nM	> 45.9 µM

Structure (SMILES)	GI50	TGI
CN(C)CC1CCC/C(=C\c2ccc(OC(=O)/C=C/c3ccc(Cl)cc3)cc2)C1=O (stereo unspecified)	–	50 µM
Cc1[nH]c2cc([N+](=O)[O-])ccc2c1[N+](=O)[O-]	–	63 µM
O=C1C=CC(=O)c2c1nc(CBr)[nH]c2=O	–	> 100 µM
COc1cc(S(=O)(=O)Nc2ccc(-c3csc(N4C(=O)CSC4c4ccccc4O)n3)cc2)ccc1Cl (stereo unspecified)	–	> 100 µM
C=C(C)C(=O)Nc1ccc(-c2c(-c3ccc(Oc4nccc(C)n4)c(F)c3)c3c(N)ncnc3n2C)cc1	3500 nM	16.1 µM
CNC(=O)c1cc(Oc2ccc(NC(=O)Nc3cc(C(C)(C)C)nn3-c3ccc4ncccc4c3)c(F)c2)ccn1	2610 nM and 2660 nM	8.59 µM and 8.14 µM
O=c1[nH]c(=O)n(C2CC(O)C(CO)O2)cc1Br (stereo unspecified)	–	> 100 µM
CN1CCN(c2nc(N)c(Br)c(Cl)n2)CC1	–	> 100 µM
COc1ccc2[nH]c3c(c2c1)CC(=O)N1CCC[C@H](C1)CC31OCCCO1	–	> 100 µM
Cc1nc2ccc(NC3OCC(O)C(O)C3O)cc2c(=O)n1-c1ccccc1 (stereo unspecified)	–	> 100 µM
C/C(=N\NC(N)=S)c1nc2ncccc2[nH]1	–	> 100 µM
O=C(NC1=C(Cl)C(=O)c2ccccc2C1=O)C(=O)C(C(=O)c1ccc2ccccc2c1)C1OC(=O)c2ccccc21 (stereo unspecified)	–	13.9 µM
N#CC(/C(CCCC(=O)Nc1cccc([N+](=O)[O-])c1)=N\NC(=O)c1c(O)ccc2ccccc12)c1nc2ccccc2s1 (stereo unspecified)	–	> 100 µM
CC(=O)[CH-]C(=O)c1ccccc1.CC(=O)[CH-]C(=O)c1ccccc1.CC(=O)[CH-]C(=O)c1ccccc1.[Ga+3]	24800 nM	64 µM
C=C1CCOC2(C(O)C(C)(O)CO)NC(=O)C1(O)NC2=O (stereo unspecified)	–	> 100 µM
O=C(C(=CN1CCN(C(=O)c2ccco2)C1=S)C(=O)c1ccccc1)c1ccccc1	2230 nM	13.7 µM
CSc1ncc2c(n1)-c1ccccc1OC2	–	> 100 µM
CC(=O)c1c(C)c2cnc(Nc3ccc(N4CCNCC4)cn3)nc2n(C2CCCC2)c1=O	3530 nM	21.4 µM
CC#COS(=O)(=O)c1ccc(C)cc1	–	> 100 µM
COc1ccc2c(c1)C(=O)c1c-2n(CCCN(C)C)c(=O)c2cc([N+](=O)[O-])ccc12	26.7 nM	2.53 µM
O=C1CC(c2ccccc2)n2c(nc3ccccc32)N1 (stereo unspecified)	–	> 100 µM
Cc1cc(Br)ccc1N=Nc1c(C)nn(-c2ccccc2)c1-c1ccccc1	–	> 100 µM
COc1cccc(CCNc2c(C#N)c3n(c4ccccc4[n+]3C)c3ncccc23)c1	–	26.7 µM
